MIC of N. gonorrhoeae strains collected 1971-2005, agar dilution (CLSI M07); ranges 0.03-64 mg/L (penicillin, azithromycin), 0.015-1 (cefixime, ceftriaxone), 0.5-256 (spectinomycin); higher = less susceptible. No active / inactive call per row; the paper counts cefixime and ceftriaxone above 0.25 and azithromycin above 1 mg/L as non-susceptible. The source says 'penicillin'; penicillin G is assumed. Isolates are numbered anew.
Experiments:
Assay in all cases: Agar dilution by CLSI M07.
[1] = compound: C=CC1=C(C(=O)O)N2C(=O)[C@@H](NC(=O)/C(=N\OCC(=O)O)c3csc(N)n3)[C@H]2SC1 [cefixime]
[2] = compound: CC1(C)S[C@@H]2[C@H](NC(=O)Cc3ccccc3)C(=O)N2[C@H]1C(=O)O [penicillin G]
[3] = compound: CC[C@H]1OC(=O)[C@H](C)[C@@H](O[C@H]2C[C@@](C)(OC)[C@@H](O)[C@H](C)O2)[C@H](C)[C@@H](O[C@@H]2O[C@H](C)C[C@H](N(C)C)[C@H]2O)[C@](C)(O)C[C@@H](C)CN(C)[C@H](C)[C@@H](O)[C@]1(C)O [azithromycin]
[4] = compound: CN[C@@H]1[C@H](O)[C@H](NC)[C@H]2O[C@@]3(O)C(=O)C[C@@H](C)O[C@H]3O[C@@H]2[C@H]1O [spectinomycin]
[5] = compound: CO/N=C(\C(=O)N[C@@H]1C(=O)N2C(C(=O)O)=C(CSc3nc(=O)c(O)nn3C)CS[C@H]12)c1csc(N)n1 [ceftriaxone]

Test System	MIC [1]	MIC [2]	MIC [3]	MIC [4]	MIC [5]
Neisseria gonorrhoeae isolate 183 (GyrA: S91F, D95N, ParC: S88P, mtrR: -35A Del, G45D, penA: Type X Mosaic, N513Y, ponA: L421P, porB: G120K, A121N)	0.5 µg/mL	4 µg/mL	0.125 µg/mL	32 µg/mL	0.125 µg/mL
Neisseria gonorrhoeae isolate 123 (GyrA: Wild type, ParC: Wild type, mtrR: -35A Del, G45D, penA: Type II NonMosaic, A517G, ponA: L421P, porB: G120N, A121D)	≤ 0.015 µg/mL	0.125 µg/mL	≤ 0.03 µg/mL	16 µg/mL	≤ 0.015 µg/mL
Neisseria gonorrhoeae isolate 205 (GyrA: D95G, ParC: Wild type, mtrR: -35A Del, A39T, penA: Type V Nonmosaic, A517G, G543S, ponA: L421P, porB: G120K, A121D)	0.03 µg/mL	4 µg/mL	0.25 µg/mL	32 µg/mL	0.06 µg/mL
Neisseria gonorrhoeae isolate 90 (GyrA: Wild type, ParC: Wild type, mtrR: -35A Del, G45D, penA: Type I NonMosaic, ponA: L421P, porB: G120D, A121G)	≤ 0.015 µg/mL	0.06 µg/mL	≤ 0.03 µg/mL	16 µg/mL	≤ 0.015 µg/mL
Neisseria gonorrhoeae isolate 45 (GyrA: Wild type, ParC: Wild type, mtrR: G45D, penA: Type XXII NonMosaic, A517G, ponA: Wild type, porB: Wild type)	≤ 0.015 µg/mL	0.25 µg/mL	0.06 µg/mL	8 µg/mL	≤ 0.015 µg/mL
Neisseria gonorrhoeae isolate 126 (GyrA: S91F, ParC: Wild type, mtrR: A39T, penA: Type II NonMosaic, A517G, ponA: Wild type, porB: G120D)	≤ 0.015 µg/mL	32 µg/mL	≤ 0.03 µg/mL	16 µg/mL	≤ 0.015 µg/mL
Neisseria gonorrhoeae isolate 101 (GyrA: S91F, ParC: Wild type, mtrR: G45D, penA: Type IX NonMosaic, A517G, ponA: L421P, porB: G120K, A121D)	0.03 µg/mL	2 µg/mL	0.06 µg/mL	16 µg/mL	0.03 µg/mL
Neisseria gonorrhoeae isolate 141 (GyrA: Wild type, ParC: Wild type, mtrR: -35A Del, penA: Type XXII NonMosaic, A517G, ponA: L421P, porB: G120D, A121D)	0.03 µg/mL	4 µg/mL	0.5 µg/mL	16 µg/mL	0.03 µg/mL
Neisseria gonorrhoeae isolate 136 (GyrA: S91F, D95G, ParC: Wild type, mtrR: -35A Del, penA: Type V Nonmosaic, A517G, G543S, ponA: L421P, porB: G120K, A121N)	0.125 µg/mL	4 µg/mL	0.25 µg/mL	16 µg/mL	0.06 µg/mL
Neisseria gonorrhoeae isolate 6 (GyrA: Wild type, ParC: Wild type, mtrR: Wild type, penA: Type IV NonMosaic, A517G, G543S, ponA: L421P, porB: G120K, A121D)	≤ 0.015 µg/mL	> 64 µg/mL	0.125 µg/mL	16 µg/mL	≤ 0.015 µg/mL
Neisseria gonorrhoeae isolate 186 (GyrA: Wild type, ParC: Wild type, mtrR: Wild type, penA: Type II NonMosaic, A517G, ponA: Wild type, porB: Wild type)	≤ 0.015 µg/mL	0.5 µg/mL	0.25 µg/mL	16 µg/mL	≤ 0.015 µg/mL
Neisseria gonorrhoeae isolate 146 (GyrA: Wild type, ParC: Wild type, mtrR: G45D, penA: Type I NonMosaic, ponA: Wild type, porB: Wild type)	≤ 0.015 µg/mL	0.125 µg/mL	≤ 0.03 µg/mL	8 µg/mL	≤ 0.015 µg/mL
Neisseria gonorrhoeae isolate 30 (GyrA: Wild type, ParC: Wild type, mtrR: -35A Del, penA: Type V Nonmosaic, A517G, G543S, ponA: L421P, porB: G120K, A121D)	0.03 µg/mL	2 µg/mL	0.25 µg/mL	32 µg/mL	0.06 µg/mL
Neisseria gonorrhoeae isolate 122 (GyrA: Wild type, ParC: Wild type, mtrR: -35A Del, A39T, penA: Type IV NonMosaic, A517G, G543S, ponA: L421P, porB: Wild type)	0.125 µg/mL	1 µg/mL	0.125 µg/mL	32 µg/mL	0.125 µg/mL
Neisseria gonorrhoeae isolate 118 (GyrA: Wild type, ParC: Wild type, mtrR: G45D, penA: Type XXII NonMosaic, A517G, ponA: Wild type, porB: Wild type)	≤ 0.015 µg/mL	0.25 µg/mL	0.06 µg/mL	16 µg/mL	≤ 0.015 µg/mL
Neisseria gonorrhoeae isolate 219 (GyrA: Wild type, ParC: Wild type, mtrR: -35A Del, penA: Type XXII NonMosaic, A517G, ponA: L421P, porB: G120K, A121D)	≤ 0.015 µg/mL	2 µg/mL	0.5 µg/mL	16 µg/mL	0.03 µg/mL

Test System	MIC [1]	MIC [2]	MIC [3]	MIC [4]	MIC [5]
Neisseria gonorrhoeae isolate 79 (GyrA: Wild type, ParC: Wild type, mtrR: -35A Del, G45D, penA: Type XXII NonMosaic, A517G, ponA: L421P, porB: G120D)	0.03 µg/mL	0.5 µg/mL	0.06 µg/mL	16 µg/mL	0.03 µg/mL
Neisseria gonorrhoeae isolate 196 (GyrA: Wild type, ParC: Wild type, mtrR: -35A Del, G45D, penA: Type II NonMosaic, A517G, ponA: Wild type, porB: G120K, A121D)	≤ 0.015 µg/mL	1 µg/mL	0.125 µg/mL	16 µg/mL	≤ 0.015 µg/mL
Neisseria gonorrhoeae isolate 112 (GyrA: Wild type, ParC: Wild type, mtrR: A39T, penA: Type II NonMosaic, A517G, ponA: Wild type, porB: Wild type)	≤ 0.015 µg/mL	0.125 µg/mL	≤ 0.03 µg/mL	16 µg/mL	≤ 0.015 µg/mL
Neisseria gonorrhoeae isolate 50 (GyrA: Wild type, ParC: Wild type, mtrR: G45D, penA: Type I NonMosaic, ponA: Wild type, porB: G120D, A121N)	≤ 0.015 µg/mL	0.25 µg/mL	0.125 µg/mL	16 µg/mL	≤ 0.015 µg/mL
Neisseria gonorrhoeae isolate 150 (GyrA: Wild type, ParC: Wild type, mtrR: -35A Del, G45D, penA: Type XXII NonMosaic, A517G, ponA: L421P, porB: G120D)	0.03 µg/mL	2 µg/mL	0.5 µg/mL	16 µg/mL	0.03 µg/mL
Neisseria gonorrhoeae isolate 65 (GyrA: S91F, ParC: Wild type, mtrR: G45D, penA: Type VII NonMosaic, A501V, A517G, G543S, ponA: L421P, porB: G120K, A121D)	0.06 µg/mL	2 µg/mL	0.06 µg/mL	16 µg/mL	0.06 µg/mL
Neisseria gonorrhoeae isolate 199 (GyrA: Wild type, ParC: Wild type, mtrR: G45D, penA: Type XXII NonMosaic, A517G, ponA: Wild type, porB: G120D, A121D)	≤ 0.015 µg/mL	0.5 µg/mL	0.25 µg/mL	16 µg/mL	≤ 0.015 µg/mL
Neisseria gonorrhoeae isolate 69 (GyrA: Wild type, ParC: Wild type, mtrR: Wild type, penA: Type I NonMosaic, ponA: Wild type, porB: Wild type)	≤ 0.015 µg/mL	0.125 µg/mL	0.25 µg/mL	16 µg/mL	≤ 0.015 µg/mL
Neisseria gonorrhoeae isolate 3 (GyrA: Wild type, ParC: Wild type, mtrR: G45D, penA: Type XXII NonMosaic, A517G, ponA: Wild type, porB: Wild type)	≤ 0.015 µg/mL	0.25 µg/mL	0.06 µg/mL	16 µg/mL	≤ 0.015 µg/mL
Neisseria gonorrhoeae isolate 189 (GyrA: Wild type, ParC: Wild type, mtrR: Wild type, penA: Type V Nonmosaic, A517G, G543S, ponA: L421P, porB: G120K, A121D)	0.03 µg/mL	2 µg/mL	0.25 µg/mL	32 µg/mL	0.03 µg/mL
Neisseria gonorrhoeae isolate 59 (GyrA: Wild type, ParC: Wild type, mtrR: G45D, penA: Type XXII NonMosaic, A517G, ponA: Wild type, porB: G120D, A121D)	0.03 µg/mL	1 µg/mL	0.25 µg/mL	16 µg/mL	0.03 µg/mL
Neisseria gonorrhoeae isolate 88 (GyrA: Wild type, ParC: Wild type, mtrR: -35A Del, penA: Type XXII NonMosaic, A517G, ponA: L421P, porB: G120K, A121D)	≤ 0.015 µg/mL	0.125 µg/mL	≤ 0.03 µg/mL	16 µg/mL	≤ 0.015 µg/mL
Neisseria gonorrhoeae isolate 178 (GyrA: Wild type, ParC: Wild type, mtrR: -35A Del, penA: Type XII NonMosaic, A517G, ponA: L421P, porB: G120K, A121N)	0.06 µg/mL	2 µg/mL	0.25 µg/mL	16 µg/mL	0.125 µg/mL
Neisseria gonorrhoeae isolate 234 (GyrA: Wild type, ParC: Wild type, mtrR: -35A Del, G45D, penA: Type IV NonMosaic, A517G, G543S, ponA: L421P, porB: G120N, A121D)	0.03 µg/mL	4 µg/mL	0.5 µg/mL	16 µg/mL	0.03 µg/mL
Neisseria gonorrhoeae isolate 110 (GyrA: Wild type, ParC: Wild type, mtrR: -35A Del, penA: Type IV NonMosaic, A517G, G543S, ponA: L421P, porB: G120K, A121D)	0.06 µg/mL	2 µg/mL	0.25 µg/mL	32 µg/mL	0.125 µg/mL
Neisseria gonorrhoeae isolate 152 (GyrA: Wild type, ParC: Wild type, mtrR: -35A Del, penA: Type XXII NonMosaic, A517G, ponA: L421P, porB: G120K, A121D)	0.03 µg/mL	> 64 µg/mL	0.5 µg/mL	16 µg/mL	0.03 µg/mL

Reference: the supplement of paper PMC10928670
